The text below walks through data of a collection of fitness landscapes (doi:10.1126/science.1257360).

B1: PhoQ; a variant is named by its letters at X, in order, P23837 (parent)
chain: MKKLLRLFFPLSLRVRFLLATAAVVLVLSLAYGMVALIGYSVSFDKTTFRLLRGESNLFYTLAKWENNKLHVELPENIDKQSPTMTLIYDENGQLLWAQRDVPWLMKMIQPDWLKSNGFHEIEADVNDTSLLLSGDHSIQQQLQEVREDDDDAEMTHSVAVNVYPATSRMPKLTIVVVDTIPVELKSSYMVWSWFIYVLSANLLLVIPLLWVAAWWSLRPIEALAKEVRELEEHNRELLNPATTRELTSLVRNLNRLLKSERERYDKYRTTLTDLTHSLKTPLXXLQXXLRSLRSEKMSVSDAEPVMLEQISRISQQIGYYLHRASMRGGTLLSRELHPVAPLLDNLTSALNKVYQRKGVNISLDISPEISFVGEQNDFVEVMGNVLDNACKYCLEFVEISARQTDEHLYIVVEDDGPGIPLSKREVIFDRGQRVDTLRPGQGVGLAVAREITEQYEGKIVAGESMLGGARMEVIFGRQHSAPKDE

The other results are listed elsewhere or left out. Bounds are passed on as bounds.

Variants of B1 are the subject of this test. Briefly: enrichment ratio after two sorts for PhoP signalling (ratio (wild type AVST 3.29)); higher = more functional. The following applies: with PhoP (E. coli).
For the variant QSYN, the enrichment ratio was determined as 0.327.

LFTR: the enrichment ratio was at most 0.25.

For QPWS, the enrichment ratio is at most 0.25. Under DLPK stands at most 0.25; under DRYD, at most 0.25. Under THIE stands at most 0.25; under GLVI, 1.8. The figure for VILE is at most 0.25; for HWLR it is at most 0.25.

For the variant FTIP, the enrichment ratio was at most 0.25.

In the case of IYAN, the enrichment ratio is at most 0.25. The figure for ICEP is 1.26; for EQRD it is at most 0.25. As for RSKG, the enrichment ratio is at most 0.25. Under MYPQ stands at most 0.25; under VFDF, at most 0.25. Under IQVI stands at most 0.25; under DEST, at most 0.25.

On to GKTA, for which the enrichment ratio was at most 0.25.

DHIG: the enrichment ratio was at most 0.25. For NKAH, the enrichment ratio was at most 0.25. With GMNI, the enrichment ratio is at most 0.25. As to FIQM, the enrichment ratio is at most 0.25. As to VAVM, the enrichment ratio was at most 0.25. The figure for EHDP is at most 0.25. Under MVIP stands at most 0.25; under YKSM, at most 0.25; under LNEK, at most 0.25. The figure for YAYG is at most 0.25; for NGHC it is at most 0.25; for RYIY it is at most 0.25. With KNFA, the enrichment ratio was at most 0.25.

KFIY: the enrichment ratio was at most 0.25. In the case of QDQM, the enrichment ratio was at most 0.25. The figure for MASQ is at most 0.25; for WCPD it is at most 0.25; for RYWC it is at most 0.25. For KNML, the enrichment ratio is at most 0.25. Under SMMQ stands 4.3. Under LKPF stands at most 0.25; under ANHF, at most 0.25; under IMFR, at most 0.25.

In the case of SWQF, the enrichment ratio was at most 0.25. For KAPH, the enrichment ratio was at most 0.25. The figure for NWCL is at most 0.25; for DVQS it is at most 0.25. Under CFVI stands at most 0.25; under HMHA, at most 0.25; under PAIK, at most 0.25. The figure for VPYM is at most 0.25; for AHFP it is at most 0.25. On to QQGT, for which the enrichment ratio was at most 0.25. As for FFQF, the enrichment ratio is at most 0.25. As for SHDL, the enrichment ratio is at most 0.25. In the case of PFWK, the enrichment ratio was at most 0.25. With VYWI, the enrichment ratio was at most 0.25. Under SYLW stands at most 0.25; under LSFQ, 3.77; under WERD, at most 0.25.

On to EDNA, for which the enrichment ratio was at most 0.25. The figure for RDSV is at most 0.25; for QDRY it is at most 0.25. As to AWLE, the enrichment ratio is at most 0.25. The figure for ECLK is at most 0.25; for FDKI it is at most 0.25; for IPFG it is at most 0.25.

On to VDGC, for which the enrichment ratio was at most 0.25. Regarding IDFC, the enrichment ratio was at most 0.25. Regarding WVIY, the enrichment ratio is at most 0.25.

Turning to SNES, the enrichment ratio is at most 0.25. As to ITYY, the enrichment ratio was at most 0.25. Under TVMK stands 2.

Regarding DLSW, the enrichment ratio was at most 0.25. The figure for ITQY is at most 0.25; for LWDW it is at most 0.25; for DGKV it is at most 0.25.

For SLIC, the enrichment ratio was at most 0.25. Take TTWE: the enrichment ratio was at most 0.25. Under YHML stands at most 0.25. In the case of FQNY, the enrichment ratio is at most 0.25. Regarding KCPL, the enrichment ratio was at most 0.25. Under VWDK stands at most 0.25. RYNK: the enrichment ratio was at most 0.25. Under QEQH stands at most 0.25.
